From the RNAGym collection of RNA variant scans (doi:10.1073/pnas.2313332121)
Variants at the background level are over-represented here.

B1: TPR 5TU (parent)
chain: GGAUCUUCUCGAUCUAACAAAAAAGACAAAUCUGCCACAAAGCUUGAGAGCAUCUUCGGAUGCAGAGGCGGCAGCCUUCGGUGGCGCGAUAGCGCCAACGUUCUCAACUAUGACACGCAAAACGCGUGCUCCGUUGAAUGGAGUUUAUCAUG

Variants of: B1
Experiment: polymerase ribozyme fitness, log enrichment relative to wild type (log ratio); higher = more active; in vitro selection for triplet polymerase activity
Summary of the method: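 To select mutant libraries of each subunit of a heterodimeric triplet polymerase ribozyme, built by PCR and transcribed, each was annealed with a biotinylated primer, partner subunit and triplets, then incubated frozen at −7 °C. Extended constructs were gel-excised, captured on streptavidin beads and amplified by RT-PCR, in one round carried out in triplicate. Illumina sequencing of input and output libraries kept genotypes with ≥10 input reads and ≥1 read per output. Fitness is the base-2 logarithm of genotype enrichment relative to wild-type enrichment, from inverse-variance-weighted replicate averages.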

| Variant | polymerase ribozyme fitness (log ratio) |
| --- | --- |
| U9C U56A C76A C108G G143U A150G | ≤ -4.2 |
| C10G C14U A49U G50A A64U C76A U90G C118U G128A | ≤ -4.2 |
| C10A C14G U77A C85A G92A A110G A122G | ≤ -4.2 |
| U9G G88C C99A A119U | ≤ -4.2 |
| U9C A37G G42C A73U G92C C103U | ≤ -4.2 |
| C10G A26C C93A C116U C125G U134C | ≤ -4.2 |
| C10G C32G C38G U55G C87A G92A C125G G126A | -4.1 |
| C10G A37U C96A | ≤ -4.2 |
| C10A A19U G50A U53G C72U C95U G133C G136U U148A | ≤ -4.2 |
| C10G A89U C93G | ≤ -4.2 |
| U9C C54U C85A G136C | ≤ -4.2 |
| C10G A22G A39U U109C | ≤ -4.2 |
| C10G A17U G58C G59U G81U G92A A106C | ≤ -4.2 |
| C10G A16U C76G G84A C118A G141C | ≤ -4.2 |
| U9G G86U C125U | ≤ -4.2 |
| C10A U15G U31A C36U U55A A73G C108G A142G | ≤ -4.2 |
| C10A A22G G46A C54U C75G G83U C95A | ≤ -4.2 |
| C10A G46A C85G C114U G140A G141A G143A | ≤ -4.2 |
| U9C A98U A115U A121G U127G | ≤ -4.2 |
| U9G A16C G80C G128U | ≤ -4.2 |
| C10G A22U A26G C63U | ≤ -4.2 |

| Variant | polymerase ribozyme fitness (log ratio) |
| --- | --- |
| U9G A20C G58C C96U | ≤ -4.2 |
| U9C C18G A21G G50U G92U C125A U148C | ≤ -4.2 |
| C10G A17U A22U G48A G59A U77G G86C C95U U148A | ≤ -4.2 |
| C10A C51U C93U U111G | ≤ -4.2 |
| U9C C14G C27U A28U U31A C35A C87A | ≤ -4.2 |
| U9G C10U A37C C43U G68C C76G C93G G140U | ≤ -4.2 |
| U9G C14G C38U G50C A138C G141A | ≤ -4.2 |
| U9G A39U G68C C87G U109C | ≤ -4.2 |
| U9C A30U G58C C76A G94C U104G G136A | ≤ -4.2 |
| C10A A22U A24G A40C A52C C57U G70A C93U A147C | -4.05 |
| U9G C54G G62A C75A G81C C93G C96A C103G C118U | ≤ -4.2 |
| C10A A12G A22G U56A C85G | ≤ -4.2 |
| U9G U44G G59C U148G | ≤ -4.2 |
| C10G A16C G50A C93U | ≤ -4.2 |
| C10G A21U A37U C43U C57U C123U U146A | ≤ -4.2 |
| C10G A20G A138G U144A U145A | ≤ -4.2 |
| U9G C10U A16G C35A C87U A89G | ≤ -4.2 |
| C10A A49C U55A G59A | ≤ -4.2 |
| C10A C116G C118G G133U U145G | ≤ -4.2 |
| U9G A30U G84U C85U | ≤ -4.2 |
| C10G C35G U55A C72A C85U G133C U144C | ≤ -4.2 |

| Variant | polymerase ribozyme fitness (log ratio) |
| --- | --- |
| C10G C27G A29G C36U U44G U56G C87A | ≤ -4.2 |
| C10A A19C A29U C36U C57U G58A A66C G67C U82G G84U U109A | ≤ -4.2 |
| U9G C35A G81A C85A G141C | ≤ -4.2 |
| U9G A23C G58A U146A A150G | ≤ -4.2 |
| C10G C38U C87A C93G | ≤ -4.2 |
| U9C U15G C54A G67C G84A G117A | ≤ -4.2 |
| U9G G83C C93G | ≤ -4.2 |
| U9G G86A A138G | ≤ -4.2 |
| U9G G11A A16U G34C C36U A40U U56A G62U G94U A110U | ≤ -4.2 |
| C10G A47U C54A C72U G81A G92C G133U U135G | ≤ -4.2 |
| C10G A20G A40U G94U C125U G133U | ≤ -4.2 |
| C10G A30C U45A C76G U77G C95A A97U U101A C114U U134G | ≤ -4.2 |
| U9G U53C G58A U148G | ≤ -4.2 |
| C10A A52U C57G G59C C103G U144A | ≤ -4.2 |
| U9C C96A C103A C108U U134A | ≤ -4.2 |
| C10G A21C A60C C79U C85G A98U A110C C129G | ≤ -4.2 |
| U9G G50A A142C | ≤ -4.2 |
| C10G C35U A37U A41U C43U U55A G92U U148A | ≤ -4.2 |
| U9C G71A C95U U151C | ≤ -4.2 |
| U9G A29U U53G U55G C93A A137C | ≤ -4.2 |
| C10G A21U C36U A39U C93A G126A | ≤ -4.2 |

| Variant | polymerase ribozyme fitness (log ratio) |
| --- | --- |
| C10A A23C G25C G92A A113U G133C G141U U146C | ≤ -4.2 |
| C10G A16G A37G G70U C85U G143U | ≤ -4.2 |
| U9C C14G | ≤ -4.2 |
| C10A A21G U45A G59C C79U A91U C96U | ≤ -4.2 |
| U9G G11U U55G C57A G94U A142G | ≤ -4.2 |
| C10G C14G A16U A23U G50A C57G C93A C103G C108U A122U G141U | ≤ -4.2 |
| C10A A39C G68A U135C | ≤ -4.2 |
| U9G C96U | -3.76 |
| C10G A16C G58A U90C C95U A98G A110C A113U | ≤ -4.2 |
| C10A A49U G65U G67A U130C U135G G136A U144G | ≤ -4.2 |
| C10A G92A | -4.08 |
| C10G A20U G59U U101G | ≤ -4.2 |
| U9C C57G G140C | ≤ -4.2 |
| U9G A47U U55G C76G U77A A91C G92A G112C | ≤ -4.2 |
| U9G A23C C75U C87G C105G G140U | ≤ -4.2 |
| C10G A12U C18G C87G G92U U146G | ≤ -4.2 |
| U9G C51U U56G C76U G88C | ≤ -4.2 |
| C10A A24U A26U C35G C85U G140U | ≤ -4.2 |
| U9G A19U G83A A107G A115G G141A | ≤ -4.2 |
| U9G A30U A52C G58U G59A A98U U139A U146G | ≤ -4.2 |
